Screen size: about 310,000 compounds; about 14,000 (4.5%) showed an effect of 50% or more. Effects have a minus sign here. Some of the results follow.
What follows are molecules tested against human ether-à-go-go-related gene (hERG) potassium channel (human, UniProt Q12809) (assay: primary screen, population patch clamp on CHO cells stably expressing hERG).
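Further: peak tail current of the secondary pulse compared with the same well before compound.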

human ether-à-go-go-related gene (hERG) potassium channel, sequence (Q12809 whole entry, looked up): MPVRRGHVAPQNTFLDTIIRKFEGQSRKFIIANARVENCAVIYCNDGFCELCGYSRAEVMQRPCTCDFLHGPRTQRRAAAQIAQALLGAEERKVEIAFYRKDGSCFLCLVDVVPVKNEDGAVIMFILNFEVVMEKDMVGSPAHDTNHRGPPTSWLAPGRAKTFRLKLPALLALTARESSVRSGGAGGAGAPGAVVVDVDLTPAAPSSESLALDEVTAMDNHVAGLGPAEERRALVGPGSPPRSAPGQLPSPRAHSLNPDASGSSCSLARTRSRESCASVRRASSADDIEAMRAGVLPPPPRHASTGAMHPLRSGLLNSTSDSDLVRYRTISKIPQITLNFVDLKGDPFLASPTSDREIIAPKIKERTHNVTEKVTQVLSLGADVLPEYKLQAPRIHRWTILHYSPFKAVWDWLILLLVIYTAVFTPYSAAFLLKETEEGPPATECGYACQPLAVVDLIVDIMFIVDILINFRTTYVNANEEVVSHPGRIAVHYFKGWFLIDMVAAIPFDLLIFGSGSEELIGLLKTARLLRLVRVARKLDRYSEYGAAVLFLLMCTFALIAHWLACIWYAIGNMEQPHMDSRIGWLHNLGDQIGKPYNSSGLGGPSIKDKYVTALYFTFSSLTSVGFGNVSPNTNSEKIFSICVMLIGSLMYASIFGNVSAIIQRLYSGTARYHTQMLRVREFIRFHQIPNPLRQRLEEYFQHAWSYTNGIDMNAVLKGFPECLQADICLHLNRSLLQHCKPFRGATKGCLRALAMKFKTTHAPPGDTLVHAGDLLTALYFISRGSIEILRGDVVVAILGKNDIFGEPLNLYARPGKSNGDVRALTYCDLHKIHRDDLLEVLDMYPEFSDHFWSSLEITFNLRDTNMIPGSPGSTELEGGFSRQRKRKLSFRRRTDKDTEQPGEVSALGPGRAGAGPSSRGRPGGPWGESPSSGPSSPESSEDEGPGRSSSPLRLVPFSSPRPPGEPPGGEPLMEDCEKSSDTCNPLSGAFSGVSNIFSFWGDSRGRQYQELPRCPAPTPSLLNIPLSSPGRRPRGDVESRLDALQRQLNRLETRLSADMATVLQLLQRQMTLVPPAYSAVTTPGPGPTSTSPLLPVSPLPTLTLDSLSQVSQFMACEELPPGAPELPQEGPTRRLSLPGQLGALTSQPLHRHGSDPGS

| Compound | hERG current change (%, negative = inhibition) at 10uM [%] |
| --- | --- |
| Cn1c(SCC(=O)NC2CCS(=O)(=O)C2)nnc1-c1ccco1 (stereo not drawn) | 7.35 |
| O=C1CSC(c2cccs2)N1c1ccccc1 (stereo not drawn) | 15 |
| CCCN1CCC(NC(=O)CCc2nnc(-c3ccccc3)o2)CC1 | 10.3 |
| Cc1oc(/C=N/NC(=O)CN(c2ccccc2Br)S(C)(=O)=O)cc1Br | -2.1 |
| COc1cnn(C(C)(C)C)c(=O)c1Cl | 15.1 |
| O=C(COC(=O)c1nsc(Cl)c1Cl)NC1CCCCC1 | 17.1 |
| CCC1CCC(N2CCN(c3ccc([N+](=O)[O-])cc3)CC2)CC1 (stereo not drawn) | -79.8 |
| CCCC(=O)Nc1nn(C)c2nc3ccc(C)cc3cc12 | 25.3 |
| Cc1ccc(Nc2nc(COC(=O)C3CC3)cs2)cc1 | -13.1 |
| CCOC(=O)C1CCN(C2=NC(=O)/C(=C/c3ccc(OC)c(OC)c3)S2)CC1 | -17.8 |
| Cc1cccc(NC(=O)C(=O)NCC2CCCO2)c1 (stereo not drawn) | 18.8 |
| Cn1c(=O)n(Cc2ccccc2)c2ccccc21 | -4.25 |
| CCCC(=O)Nc1sc(C)c(-c2ccc(OC)cc2)c1C#N | -1.76 |
| COc1ccc(-c2nnn(Cc3nc(N)nc(N4CCOCC4)n3)n2)cc1OC | -0.202 |
| O=C1C(=C2CCCCC2)SC(=S)N1Cc1ccco1 | -3.86 |
| Cc1cc(N2CCN(C)CC2)nc(-c2ccccc2O)n1 | -41.9 |
| Cc1c(O)ccc(C(=O)CN2C(=O)c3ccccc3C2=O)c1O | 19.4 |
| CCN(c1ccccc1)S(=O)(=O)c1cccc(C(=O)O)c1 | 3.87 |
| CC(=O)c1ccc(OC(=O)C2c3ccccc3Oc3ccccc32)cc1 | 1.88 |
| CCCCN=C1SC(C(=O)Nc2sc3c(c2C(=O)OC)CCC3)C(N)=C1C(=O)N1CCOCC1 (stereo not drawn) | -1.11 |
| COc1cc(/C=C2/C(=O)ON=C2C)cc(Cl)c1O | -17.5 |
| CCN(CC)C(CNC(=O)CSc1nnnn1-c1ccc(C)c(C)c1)c1ccco1 (stereo not drawn) | -54.5 |
| CCOC(=O)CC1C(=O)NCCN1C(=O)c1c(Cl)cccc1Cl (stereo not drawn) | 16.2 |

| Compound | hERG current change (%, negative = inhibition) at 10uM [%] |
| --- | --- |
| CCC/C(=N\NC(=O)C1CC1)c1ccc(Br)cc1 | 11.9 |
| C1CCC(C23CC4CC(CC(C4)C2)C3)NC1 (stereo not drawn) | 5.21 |
| CCOC(=O)C1CCCN(C2=C(NS(=O)(=O)c3ccc(Br)cc3)C(=O)c3ccccc3C2=O)C1 (stereo not drawn) | -49.1 |
| CN(C(=O)CCN1C(=O)S/C(=C\c2ccccc2)C1=O)C1CCS(=O)(=O)C1 (stereo not drawn) | -0.0298 |
| COc1ccc(NCc2nnc(SCc3ccc(Cl)cc3)n2-c2ccccc2)cc1 | -2.47 |
| O=C(CCCC(=O)N(CC(=O)NC1CCCCC1)c1ccc(F)cc1)Nc1ccccn1 | 7.12 |
| O=C1[C@H]2[C@@H](c3ccc(F)cc3)N3C(=O)N(c4ccccc4)C(=O)[C@@]3(Cc3ccc(Cl)cc3)[C@H]2C(=O)N1C1CCCCC1 | 8.97 |
| CC(C)(C)C1=NN(C(=O)c2ccccc2)C(O)(C(C)(C)C)C1 (stereo not drawn) | -32.6 |
| CC(=O)NCc1ccc(S(=O)(=O)NC(C)CCc2ccccc2)cc1 (stereo not drawn) | 13.3 |
| CC(=O)NC1C(=O)N=C(SCC(=O)Nc2sc3c(c2C#N)CCCCCC3)NC1=O (stereo not drawn) | 9.21 |
| Cc1cc(C(=O)Nc2c(C)nn(Cc3ccccc3Cl)c2C)no1 | -3.4 |
| O=C(CNC1CCCCC1)N1CCc2ccccc2C1 | -8.04 |
| C=C(C)C(=O)Nc1cccc(C2=NOC3(C2)C[C@@H](C(N)=O)N(C(=O)/C=C/CC)C3)c1 (stereo partly drawn) | 2.42 |
| CC(Oc1ccccc1Cl)C(=O)N(Cc1ccco1)C1CCS(=O)(=O)C1 (stereo not drawn) | -8.93 |
| Cc1c(NC(=O)C23CC4CC(CC(C4)C2)C3)c(=O)n(-c2ccccc2)n1C | 20.7 |
| CCCCC(=O)Nc1ccc(C(=O)N(CC)c2ccccc2C)cc1 | 15.3 |
| CCOc1ccc(CCNC(=O)CN2C(=O)NC3(CCCCC3C)C2=O)cc1OCC (stereo not drawn) | 6.68 |
| Cc1sc2nc(-c3ccncc3)[nH]c(=O)c2c1-c1ccccc1 | -2.11 |
| Cc1ccc(NC(=O)C2CCCNC2=O)nc1 (stereo not drawn) | 11.6 |
| COc1ccc(NC(=S)NNC(=S)Nc2cccc(C(F)(F)F)c2)cc1 | 10 |
| COc1ccc2c(c1)C(=O)CCC2c1ccccc1 (stereo not drawn) | -22.6 |
| COc1ccc(NC(=O)Cn2nnc(C(=O)NCc3ccccc3)c2N)cc1Cl | -4.06 |

— paper PMC4336329 (PLoS ONE, 2015)
